# PubChem BioAssay AID1347165 (National Center for Advancing Translational Sciences (NCATS), 2019)
# Among all 220,000 compounds or so, about 5,700 (2.6%) were called active. The inconclusive results got no clear call from the source; some entries with a clear call stand among them for comparison. Calls follow the shape of the dose curve; as a rule, active = well fitted inhibition curve with a large enough effect; inconclusive = small, poorly fitted or top-dose-only effect; inactive = no such curve, though single readings can be large or run the other way. Potencies of inconclusive entries are doubtful fits and often do not repeat. Where a structure was tested more than once in an assay, its records may differ in their call.
# Biological target: Lysine-specific demethylase 5B (Homo sapiens) (UniProt Q9UGL1)
# Test: Primary screen for KDM5B Histone Demethylases FDH-coupled qHTS; also: nearly all actives have a fitted effect of over 70% in size
# Conditions: FDH-coupled NADH fluorescence (FDH is formaldehyde dehydrogenase); series mostly up to 57.7 µM
# How it was run: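 Coupled FDH/NAD⁺ fluorescence readout. KDM5BΔAP 200 nM final; compound titration, 10 min RT preincubation; substrate mix 12.5 µM H3K4me3, 25 µM 2-OG, 50 µM Fe(II), 100 µM ascorbate, 0.25 mM NAD⁺, 0.25 U/mL FDH; ΔRFU over 30 min.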
# Potency is read from the fitted curve at half-maximal effect; tags tell the direction and shape of the fitted curve.
# UniProt Q9UGL1, sequence (Q9UGL1 whole entry, looked up): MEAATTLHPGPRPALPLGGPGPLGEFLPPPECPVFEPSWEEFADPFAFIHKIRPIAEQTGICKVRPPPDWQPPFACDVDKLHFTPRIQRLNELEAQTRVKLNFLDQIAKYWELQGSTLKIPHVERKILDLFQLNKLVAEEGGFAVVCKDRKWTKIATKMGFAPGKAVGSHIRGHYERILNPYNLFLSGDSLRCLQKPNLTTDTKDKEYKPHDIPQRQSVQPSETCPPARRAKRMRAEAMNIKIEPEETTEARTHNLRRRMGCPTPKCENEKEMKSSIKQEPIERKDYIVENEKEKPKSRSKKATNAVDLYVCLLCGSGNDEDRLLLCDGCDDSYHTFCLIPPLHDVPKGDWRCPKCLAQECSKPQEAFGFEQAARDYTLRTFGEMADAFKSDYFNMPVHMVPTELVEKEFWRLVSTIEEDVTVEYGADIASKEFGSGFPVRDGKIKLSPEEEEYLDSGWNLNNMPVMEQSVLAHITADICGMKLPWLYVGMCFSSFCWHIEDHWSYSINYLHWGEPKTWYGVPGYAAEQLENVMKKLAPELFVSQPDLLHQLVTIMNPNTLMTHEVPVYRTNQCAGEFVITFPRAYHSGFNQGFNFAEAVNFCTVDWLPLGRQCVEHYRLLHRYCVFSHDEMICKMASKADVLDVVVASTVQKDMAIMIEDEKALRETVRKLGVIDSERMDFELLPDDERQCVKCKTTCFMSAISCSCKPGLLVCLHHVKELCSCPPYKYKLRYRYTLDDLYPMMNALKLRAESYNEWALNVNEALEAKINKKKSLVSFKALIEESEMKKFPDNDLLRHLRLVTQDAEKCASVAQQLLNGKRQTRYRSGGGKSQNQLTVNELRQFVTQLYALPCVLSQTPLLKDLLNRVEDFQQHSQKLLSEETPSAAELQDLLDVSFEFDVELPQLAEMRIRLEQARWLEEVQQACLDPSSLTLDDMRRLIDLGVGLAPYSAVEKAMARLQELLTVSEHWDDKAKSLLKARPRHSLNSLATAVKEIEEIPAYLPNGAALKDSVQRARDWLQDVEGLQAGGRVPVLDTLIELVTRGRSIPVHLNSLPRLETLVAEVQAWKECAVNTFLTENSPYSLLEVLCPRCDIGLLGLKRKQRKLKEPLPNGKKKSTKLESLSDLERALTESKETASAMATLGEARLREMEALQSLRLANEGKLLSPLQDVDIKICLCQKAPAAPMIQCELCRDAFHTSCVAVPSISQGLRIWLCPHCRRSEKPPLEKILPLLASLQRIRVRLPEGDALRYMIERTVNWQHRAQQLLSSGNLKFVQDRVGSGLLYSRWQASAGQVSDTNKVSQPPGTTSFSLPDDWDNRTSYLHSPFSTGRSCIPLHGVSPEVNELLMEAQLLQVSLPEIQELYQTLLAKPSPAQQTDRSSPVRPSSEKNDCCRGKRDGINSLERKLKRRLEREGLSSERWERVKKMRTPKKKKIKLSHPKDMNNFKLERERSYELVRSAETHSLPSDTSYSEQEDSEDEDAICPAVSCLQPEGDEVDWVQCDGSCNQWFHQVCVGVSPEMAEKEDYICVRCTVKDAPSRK
row,Structure (SMILES),Potency
1,CC(=O)c1cccc(NS(=O)(=O)c2ccc(C)cc2)c1,inactive
2,COc1ccc([C@@H]2Sc3ccccc3NC(=O)[C@@H]2O)cc1,"inconclusive: 22.4 µM [inhibitor, partial curve, poor fit]"
3,Cc1cccc(N(CC(=O)Nc2ccccc2C(=O)NCC2CCCO2)S(C)(=O)=O)c1C (stereo not drawn),inactive
4,c1ccc(-c2nc3ccncc3[nH]2)nc1,active: 126 µM
5,CCOC(=O)C1=C(COC(=O)c2ccc3ccccc3c2O)NC(=O)NC1C (stereo not drawn),"inconclusive: 25.1 µM [inhibitor, partial curve, poor fit]"
6,O=C(Nc1ccc(F)cc1)C1CCCN1c1nc2ncccc2o1 (stereo not drawn),inactive
7,Cc1ccc(NS(=O)(=O)c2ccc3c(c2)-c2oncc2CO3)cc1F,"inconclusive: 25.1 µM [inhibitor, single point]"
8,COc1ccc(Cl)cc1C(=O)N1CCc2c(nc3cc(-c4ccccc4)[nH]n3c2=O)C1,"inconclusive: 3.16 µM [inhibitor, full curve, poor fit]"
9,O=C(Nc1ccc(C(=O)N2CCN(c3ccccc3F)CC2)cc1)c1nsc2ccccc12,"inconclusive: 35.5 µM [inhibitor, single point]"
10,CCOc1ccc(-c2cc(C(=O)NC(C)c3ccccc3)c3ccccc3n2)cc1 (stereo not drawn),"inconclusive: 3.16 µM [inhibitor, full curve, poor fit]"
11,Cc1ccc2occ(C3CC(=O)Nc4c3c(C)nn4-c3ccc(Cl)nn3)c(=O)c2c1 (stereo not drawn),inactive
12,CN(/C=C/C(=O)/C=C/N(C)c1ccccc1)c1ccccc1,"inconclusive: 31.6 µM [inhibitor, single point]"
13,CN1C(C(=O)c2ccccc2)=C(NC(=O)c2ccc(F)cc2)c2ccccc2S1(=O)=O,"inconclusive: 31.6 µM [inhibitor, single point]"
14,CCC(CC)C(=O)N1N=C(c2ccc(NS(C)(=O)=O)cc2)CC1c1ccccc1 (stereo not drawn),"inconclusive: 35.5 µM [inhibitor, partial curve, poor fit]"
15,Cc1ccc(C)c(NC(=O)C(Nc2ccc3oc(C)nc3c2)c2ccccc2)c1 (stereo not drawn),"inconclusive: 25.1 µM [inhibitor, partial curve, poor fit]"
16,O=C(c1ccc(F)cc1)N1CCC(Cc2nc(-c3ccccc3)no2)CC1,inactive
17,Cc1ccc(NC(=O)CSc2nc(-c3cccs3)nc3cc(=O)[nH]n23)cc1C,"inconclusive: 28.2 µM [inhibitor, partial curve, poor fit]"
18,CCOc1ccccc1CN1CCc2nc(N3CCN(C)CC3)ncc2C1,"inconclusive: 28.2 µM [inhibitor, single point]"
